In the supplement of paper PMC3334620:
The full ranking holds about 33,000 sequences; the median of “E-score (-0.5 to 0.5)” is about -0.016, and the highest 2% start at about 0.32. Some of the results follow.

target: T1, Stp1 (UniProt B3LFK1); assay: PBM E-score (8-mer binding enrichment) (E-score (-0.5 to 0.5)); higher = stronger / more preferred TF binding; most listed sequences are background and not binding sites; conditions: protein concentration: 200 nM; construct: GST-full length
T1 sequence: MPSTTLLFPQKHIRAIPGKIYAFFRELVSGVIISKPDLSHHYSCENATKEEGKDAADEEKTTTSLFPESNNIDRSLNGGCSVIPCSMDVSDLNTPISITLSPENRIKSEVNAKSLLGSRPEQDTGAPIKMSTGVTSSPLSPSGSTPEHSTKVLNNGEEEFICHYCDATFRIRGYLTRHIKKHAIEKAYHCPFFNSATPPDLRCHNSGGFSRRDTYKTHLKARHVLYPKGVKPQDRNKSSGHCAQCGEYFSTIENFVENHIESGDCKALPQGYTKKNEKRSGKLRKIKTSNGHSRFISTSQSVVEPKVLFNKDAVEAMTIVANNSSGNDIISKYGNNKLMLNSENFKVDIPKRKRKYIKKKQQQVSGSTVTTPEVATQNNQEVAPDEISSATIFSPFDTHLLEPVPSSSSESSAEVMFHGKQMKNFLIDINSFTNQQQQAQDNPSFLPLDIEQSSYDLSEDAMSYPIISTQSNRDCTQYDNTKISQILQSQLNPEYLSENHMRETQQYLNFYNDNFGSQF
Outline: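 GST-tagged yeast TFs (full-length or DNA-binding domain) were made by PURExpress in vitro transcription/translation and applied at about 100-200 nM to universal all-10-mer Agilent arrays. The arrays were made double-stranded by primer extension, on fresh or once-stripped slides. Bound protein was detected with fluorescent anti-GST, and scans were normalised with masliner. Each ungapped eight-base word, pooled with its reverse complement, received an E-score (modified Wilcoxon-Mann-Whitney statistic) from the Universal PBM Analysis Suite.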

Sequence | PBM E-score
AGCTCACG | -0.006
ACAAAGCA | 0.24
ACTTAACA | -0.064
ATGACGTA | -0.0285
ATGGTTGC | -0.177
CAAGAACG | 0.119
GATGTGCA | -0.192
ATGTTTTC | 0.128
ATCAAATA | 0.0256
ATTCTAGG | -0.0039
CTACAGAC | -0.142
AGGAACAG | -0.346
GCAGCGAA | 0.0703
CCTTGTTC | -0.0796
CACCCAGA | -0.257
ATAGTGAC | -0.0557
CATTGGCG | -0.071
ACCCAGCA | -0.115
ATCATCTA | -0.00058
ATCCTAAT | 0.0266
GCCGACGC | 0.0701
CAAAGATC | 0.0716
AATGTCAG | -0.192
ACTCTCTA | -0.161
CGGAGTGA | -0.0778

Sequence | PBM E-score
AGCCAGCG | -0.229
ACTCTCCT | -0.328
CCTAGGCC | -0.159
AGATTCAG | -0.135
CAAAGGGG | -0.262
AGTTTACC | -0.00036
ACAGCATA | 0.178
CAGATGAA | -0.0963
AACAGCCG | 0.255
GACGACAC | -0.042
ACCGGCAA | -0.0651
GCAGCGCA | -0.103
CTTTATCA | -0.0472
ATACAAGG | 0.173
CAAACAAG | 0.097
GCATCTCA | 0.0289
ATGCATCA | 0.245
AAACGCCC | 0.231
CACAACTC | 0.227
CAACAAAA | 0.207
TTACATAA | 0.203
CACCCTTC | -0.295
TCCGCGGA | 0.0517
ACATTGAG | -0.13
GACTTAGA | -0.136

Sequence | PBM E-score
CTCCGGAG | -0.298
ACGGTCAG | -0.174
ACTCTATG | 0.0521
CCCGTAAC | -0.112
TGAGGCAA | 0.234
AGGAAACG | 0.0878
ACTCGATC | -0.0856
CACTTGCA | 0.0242
CAAGGCGA | 0.194
GGTGAGAA | 0.0154
ACTGTGAA | 0.0195
CTAAGTGA | 0.0875
ATGCTATC | -0.218
TCCAGAAA | 0.0873
CAGTTACG | -0.0502
AGCAGAGG | -0.123
ACGTTCTC | 0.0143
CTCCCGCC | -0.205
GAATTGTC | -0.0787
CGACCCAA | 0.12
ATCTGAGG | -0.00874
AGAGTAGG | -0.0524
ACTCTTGC | -0.151
ATACCCGA | -0.0195
GGGGAACA | -0.252

Sequence | PBM E-score
CGCTTCAC | 0.111
AGCAGTAA | -0.0832
GCATACGC | 0.0331
ATGATAGG | -0.0334
AGTCAAAT | -0.0508
AGGGTCCA | -0.182
GCGCGCCA | 0.268
ACATCTAA | 0.0295
CCTCGCAA | -0.0772
AACCCTCG | -0.13
TTATTCAA | 0.186
AGGGGCGA | -0.198
CAGAGCGA | -0.0979
GTGGTTTA | -0.0575
CAGTGGTA | -0.0313
CCCCGAAC | -0.144
ACAGGGGC | -0.199
AGTAGAAG | -0.0635
AAGACAGT | -0.179
CCCGTACC | 0.191
ACTAGGAT | 0.0396
AGCTAGGA | -0.0975
AACAGACT | -0.177
AATCTGGG | -0.194
ATAAGCGG | 0.0761

Sequence | PBM E-score
GCACCCAC | 0.118
AAGGGGAA | -0.193
CACTCAGA | 0.0169
AGCAGGAC | -0.138
GTGGATTA | -0.0115
GTGGCCGA | 0.0201
AACGATCA | -0.169
AAACTGAG | -0.0369
CAGTTAGC | -0.086
ACTCGAGC | 0.04
TAGGAGAA | -0.193
AAATCGGT | -0.183
AAACTCGT | 0.0458
CCCTTCAA | 0.0178
CCCCTGAC | -0.254
AGTATTTC | 0.136
TATGTGGA | 0.136
ATGACCGG | -0.275
GATTCTCC | -0.121
AACTCTAG | -0.278
AGATCCCT | -0.192
AGGTCGGC | -0.25
CAAGTACC | -0.184
ACGGAGTG | 0.104
AGCGCCAT | 0.148

Sequence | PBM E-score
AGCCGCTC | 0.337
ATATGCGG | 0.282
CTCCTCGC | -0.143
AAGGAGGT | -0.305
GGGACCCC | -0.32
ACCACACC | -0.0384
CTGCTAAC | -0.0238
ACCCGTGA | -0.0351
CACCTTCA | -0.13
AGCCGCTG | 0.0781
CTGGTAAC | -0.21
CCTGTCGA | -0.0843
AGTTGCCA | 0.154
ACCATCCC | -0.093
ACTCCAAA | -0.0837
CTTCCCTA | -0.23
TGCGAACA | 0.0789
ATCGCTAG | 0.0173
GGGGAAGA | -0.254
CACTGTGC | 0.00331
CACAGGGG | -0.237
AATGACGG | 0.0469
AAAATGAG | 0.12
AATCGGGT | 0.0191
ACAACACC | 0.111

Sequence | PBM E-score
CGCCGGCG | 0.312
CGCTAGAC | -0.229
CATTAAAG | 0.141
CTTAAAAC | 0.182
AATATCAG | 0.0739
ACTATAGT | 0.0121
GTTCGCAA | 0.153
CTGCGGCC | 0.214
CTGCGGGC | -0.0333
CCGATGTA | -0.231
CTTCTACC | -0.205
ATAGCCAC | 0.0777
ACATAGGC | -0.152
AGACCGTC | -0.119
CCTCCGCG | 0.0514
TATAGAAA | 0.141
AAAGTACC | 0.0191
GGCCCCCC | -0.329
GAAATAGA | 0.121
GAAGTACC | 0.0344
GTCTCGCA | -0.0571
CAGTCGTA | 0.107
